Results reported in the supplement of paper PMC8728848.
Some of the results follow.

How the values were obtained:
Test in all cases: glycan array binding signal (z-score within array); higher = stronger binding
Settings in all cases: glycan notation: IUPAC condensed, linker removed
[1] = molecular target: Neu5Ac(a2-6)Gal(b1-4)GlcNAc(b1-2)Man(a1-3)[Man(a1-6)]Man(b1-4)GlcNAc(b1-4)GlcNAc
Method in brief: (§1)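 Glycan array binding is given as a within-array Z-score, which can be read as non-binding when negative. The arrays, 3228 of them, came from the Consortium for Functional Glycomics database and were retained only where the protein sequence was available. Z-scores were averaged across arrays of the same protein sequence at different concentrations or buffers and across linkers.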

[2] = molecular target: Neu5Ac(a2-6)Gal(b1-4)GlcNAc(b1-2)Man(a1-3)[Neu5Ac(a2-3)Gal(b1-4)GlcNAc(b1-2)Man(a1-6)]Man(b1-4)GlcNAc(b1-4)GlcNAc
Method in brief: as §1

[3] = molecular target: Neu5Ac(a2-6)Gal(b1-4)GlcNAc(b1-2)Man(a1-3)[Neu5Ac(a2-6)Gal(b1-4)GlcNAc(b1-2)Man(a1-6)]Man(b1-4)GlcNAc(b1-4)GlcNAc
Method in brief: as §1

[4] = molecular target: Neu5Ac(a2-6)Gal(b1-4)GlcNAc(b1-2)Man(a1-3)[Neu5Ac(a2-6)Gal(b1-4)GlcNAc(b1-2)Man(a1-6)]Man(b1-4)GlcNAc(b1-4)[Fuc(a1-6)]GlcNAc
Method in brief: as §1

[5] = molecular target: Neu5Ac(a2-6)Gal(b1-4)GlcNAc(b1-2)Man(a1-6)Man(b1-4)GlcNAc(b1-4)GlcNAc
Method in brief: as §1

[6] = molecular target: Neu5Ac(a2-6)Gal(b1-4)GlcNAc(b1-2)Man(a1-6)[Gal(b1-4)GlcNAc(b1-2)Man(a1-3)]Man(b1-4)GlcNAc(b1-4)GlcNAc
Method in brief: as §1

[7] = molecular target: Neu5Ac(a2-6)Gal(b1-4)GlcNAc(b1-2)Man(a1-6)[GlcNAc(b1-2)Man(a1-3)]Man(b1-4)GlcNAc(b1-4)GlcNAc
Method in brief: as §1

[8] = molecular target: Neu5Ac(a2-6)Gal(b1-4)GlcNAc(b1-2)Man(a1-6)[Man(a1-3)]Man(b1-4)GlcNAc(b1-4)GlcNAc
Method in brief: as §1

[9] = molecular target: Neu5Ac(a2-6)Gal(b1-4)GlcNAc(b1-2)[Neu5Ac(a2-6)Gal(b1-4)GlcNAc(b1-4)]Man(a1-3)[GlcNAc(b1-4)][Neu5Ac(a2-6)Gal(b1-4)GlcNAc(b1-2)[Neu5Ac(a2-6)Gal(b1-4)GlcNAc(b1-6)]Man(a1-6)]Man(b1-4)GlcNAc(b1-4)GlcNAc
Method in brief: as §1

[10] = molecular target: Neu5Ac(a2-6)Gal(b1-4)GlcNAc(b1-2)[Neu5Ac(a2-6)Gal(b1-4)GlcNAc(b1-4)]Man(a1-3)[GlcNAc(b1-4)][Neu5Ac(a2-6)Gal(b1-4)GlcNAc(b1-4)Man(a1-6)]Man(b1-4)GlcNAc(b1-4)GlcNAc
Method in brief: as §1

[11] = molecular target: Neu5Ac(a2-6)Gal(b1-4)GlcNAc(b1-2)[Neu5Ac(a2-6)Gal(b1-4)GlcNAc(b1-6)]Man(a1-6)[Neu5Ac(a2-6)Gal(b1-4)GlcNAc(b1-2)Man(a1-3)][GlcNAc(b1-4)]Man(b1-4)GlcNAc(b1-4)GlcNAc
Method in brief: as §1

[12] = molecular target: Neu5Ac(a2-6)Gal(b1-4)GlcNAc(b1-3)Gal(b1-3)GlcNAc
Method in brief: as §1

[13] = molecular target: Neu5Ac(a2-6)Gal(b1-4)GlcNAc(b1-3)Gal(b1-4)GlcNAc
Method in brief: as §1

[14] = molecular target: Neu5Ac(a2-6)Gal(b1-4)GlcNAc(b1-3)Gal(b1-4)GlcNAc(b1-2)Man(a1-3)[Neu5Ac(a2-6)Gal(b1-4)GlcNAc(b1-3)Gal(b1-4)GlcNAc(b1-2)Man(a1-6)]GalNAc
Method in brief: as §1

[15] = molecular target: Neu5Ac(a2-6)Gal(b1-4)GlcNAc(b1-3)Gal(b1-4)GlcNAc(b1-3)Gal(b1-4)GlcNAc
Method in brief: as §1

[16] = molecular target: Neu5Ac(a2-6)Gal(b1-4)GlcNAc(b1-3)Gal(b1-4)GlcNAc(b1-3)Gal(b1-4)GlcNAc(b1-2)Man(a1-3)[Neu5Ac(a2-6)Gal(b1-4)GlcNAc(b1-3)Gal(b1-4)GlcNAc(b1-3)Gal(b1-4)GlcNAc(b1-2)Man(a1-6)]GalNAc
Method in brief: as §1

[17] = molecular target: Neu5Ac(a2-6)Gal(b1-4)GlcNAc(b1-3)Gal(b1-4)GlcNAc(b1-3)GalNAc
Method in brief: as §1

[18] = molecular target: Neu5Ac(a2-6)Gal(b1-4)GlcNAc(b1-3)Gal(b1-4)GlcNAc(b1-3)[Neu5Ac(a2-6)Gal(b1-4)GlcNAc(b1-3)Gal(b1-4)GlcNAc(b1-6)]GalNAc
Method in brief: as §1

[19] = molecular target: Neu5Ac(a2-6)Gal(b1-4)GlcNAc(b1-3)Gal(b1-4)GlcNAc(b1-6)[Gal(b1-3)]GalNAc
Method in brief: as §1

[20] = molecular target: Neu5Ac(a2-6)Gal(b1-4)GlcNAc(b1-3)Gal(b1-4)[Fuc(a1-3)]GlcNAc(b1-3)Gal(b1-4)[Fuc(a1-3)]GlcNAc
Method in brief: as §1

[21] = molecular target: Neu5Ac(a2-6)Gal(b1-4)GlcNAc(b1-3)GalNAc
Method in brief: as §1

[22] = molecular target: Neu5Ac(a2-6)Gal(b1-4)GlcNAc(b1-3)[Neu5Ac(a2-6)Gal(b1-4)GlcNAc(b1-6)]GalNAc
Method in brief: as §1

[23] = molecular target: Neu5Ac(a2-6)Gal(b1-4)GlcNAc(b1-6)GalNAc
Method in brief: as §1

[24] = molecular target: Neu5Ac(a2-6)Gal(b1-4)GlcNAc(b1-6)[Gal(b1-3)GlcNAc(b1-3)]Gal(b1-4)Glc
Method in brief: as §1

[25] = molecular target: Neu5Ac(a2-6)Gal(b1-4)GlcNAc(b1-6)[Gal(b1-3)]GalNAc
Method in brief: as §1

[26] = molecular target: Neu5Ac(a2-6)Gal(b1-4)GlcNAc6S
Method in brief: as §1

[27] = molecular target: Neu5Ac(a2-6)GalNAc
Method in brief: as §1

[28] = molecular target: Neu5Ac(a2-6)GalNAc(b1-4)GlcNAc
Method in brief: as §1

[29] = molecular target: Neu5Ac(a2-6)GalNAc(b1-4)GlcNAc6S
Method in brief: as §1

[30] = molecular target: Neu5Ac(a2-6)GlcNAc(b1-4)GlcNAc
Method in brief: as §1

[31] = molecular target: Neu5Ac(a2-6)GlcNAc(b1-4)GlcNAc(b1-4)GlcNAc
Method in brief: as §1

B1: SP16663B-bot-321-25-321 (Bacteroides ovatus) (protein)
chain: DDDDEVTMNSKFYLSTKVFPVDSYEASLSVILKDNSVVVNELQPNYRFVACATERLSKDVKITADSDDNLVSAYNKANDTEYNILPAENYSFTNKTVTIENGESVSGDSIKIELLNVGSLTTEGGYLLPVTISSIEGNNLDALSSNRGVVYLKIQNIHVNVESGQPAEGTLIADRSGWTVKVAPTTRGDAKNLIDGTNSDVARDGGAEYWLTVDIGKVQTLTGIRNKCYASSYSPTAVEVFTSSDGAKWKSIGAVTISKSGTQYIKFSKAVETRYLKYYVKQGPNTVSLTEFDLYAK
- glycan array binding signal (z-score) [1]: -0.071
- glycan array binding signal (z-score) [2]: -0.108
- glycan array binding signal (z-score) [3]: -0.195
- glycan array binding signal (z-score) [4]: 0.583
- glycan array binding signal (z-score) [5]: -0.205
- glycan array binding signal (z-score) [6]: -0.492
- glycan array binding signal (z-score) [7]: -0.006
- glycan array binding signal (z-score) [8]: -0.484
- glycan array binding signal (z-score) [9]: -0.333
- glycan array binding signal (z-score) [10]: -0.199
- glycan array binding signal (z-score) [11]: 0.493
- glycan array binding signal (z-score) [12]: -0.392
- glycan array binding signal (z-score) [13]: -0.642
- glycan array binding signal (z-score) [14]: -0.533
- glycan array binding signal (z-score) [15]: -0.33
- glycan array binding signal (z-score) [16]: 0.133
- glycan array binding signal (z-score) [17]: -0.34
- glycan array binding signal (z-score) [18]: -0.22
- glycan array binding signal (z-score) [19]: -0.259
- glycan array binding signal (z-score) [20]: 0.239
- glycan array binding signal (z-score) [21]: 0.351
- glycan array binding signal (z-score) [22]: -0.463
- glycan array binding signal (z-score) [23]: 0.04
- glycan array binding signal (z-score) [24]: -0.409
- glycan array binding signal (z-score) [25]: 0.298
- glycan array binding signal (z-score) [26]: -0.539
- glycan array binding signal (z-score) [27]: -0.191
- glycan array binding signal (z-score) [28]: -0.786
- glycan array binding signal (z-score) [29]: -0.458
- glycan array binding signal (z-score) [30]: -0.21
- glycan array binding signal (z-score) [31]: -0.642
